# Laboratory results from PubChem BioAssay AID995 (National Center for Advancing Translational Sciences (NCATS), 2007).
# The whole screen tested about 72,000 compounds, of which about 710 (0.99%) were called active. The shares of active, inactive and inconclusive entries below differ from those in the screen. The call rests on the fitted dose curve; in most records, active means well fitted inhibition curve with a large enough effect; inconclusive means small, poorly fitted or top-dose-only effect; inactive means no such curve, though single readings can be large or run the other way. No potency is given beside an inconclusive call; the fits are too rough.
# Assay: qHTS Assay for Inhibitors of the ERK Signaling Pathway using a Homogeneous Screening Assay; further: nearly all actives have a fitted effect of over 55% in size
# Settings: HEK293-V1b, vasopressin-stimulated pERK AlphaScreen; activity, negative = inhibition: at 57.5 µM (top of the series) unless noted
# Procedure, shortened: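 HEK293 cells stably expressing V1b receptor, seeded overnight in 1% FBS, were treated with compounds for 30 min at 37C, then stimulated 5 min with 25 nM vasopressin; phospho-ERK read by AlphaScreen SureFire after lysis.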
# On the % scale 0 is the no-effect control and ±100 the full control effect; potency means the concentration at half of the fitted maximal effect; tags describe the fitted curve by direction and shape.
SMILES,Potency,"activity, negative = inhibition"
O=C(C1CCN(Cc2cc(Cl)ccc2O)CC1)N1CCN(Cc2ccccc2)CC1,"inconclusive [inhibitor, single point]",
COc1ccccc1NC(=O)COC(=O)c1ccc(S(=O)(=O)NCc2ccco2)cc1,"inconclusive [inhibitor, partial curve]",
CCOC(=O)C1=C(N)n2c(s/c(=C/c3ccco3)c2=O)=C(C(=O)OC)C1c1ccco1 (stereo not given),"inconclusive [inhibitor, partial curve]",
CCNC(=O)c1c(C)nc2ccccn12,inactive,
N#CCCn1ccc(NC(=O)c2ccc(Cl)cc2)n1,"inconclusive [inhibitor, single point]",
Nc1ccc(CCc2nc3ccccc3o2)cc1,inactive,
Nc1nc(Cl)nc2c1ncn2[C@@H]1O[C@@H](CO)[C@@H](O)[C@H]1O,active: 12.6 µM,
CCC(C)Sc1nc2c(c(=O)[nH]c(=O)n2C)n1CCc1ccccc1 (stereo not given),"inconclusive [inhibitor, single point]",
Cc1ccc(-c2nnc3sc(-c4ccncc4)nn23)cc1,"inconclusive [inhibitor, partial curve]",
CCC(=O)Oc1ccc2c(C)cc(=O)oc2c1C,"inconclusive [inhibitor, single point]",
CC(=O)c1ccc(N2CCN(C(=O)COc3ccc(F)cc3)CC2)c(F)c1,inactive,
c1coc(-c2nc3nc4ccccc4n3nc2-c2ccco2)c1,"inconclusive [inhibitor, partial curve]",
CN(C(=O)COC(=O)C1CCN(S(=O)(=O)c2cccs2)CC1)C1CCS(=O)(=O)C1 (stereo not given),inactive,
Cc1cc(C(=O)N2CCCCCC2)cs1,"inconclusive [inhibitor, single point]",
CCO[C@H](c1cc(OC)cc([N+](=O)[O-])c1OC)[C@H](C)/C=C\CC(=O)OC,,inactive: 3.75% [at 11.5 µM]
COc1ccc(N2CCN(c3oc(-c4ccco4)nc3C#N)CC2)cc1,"inconclusive [inhibitor, partial curve]",
O=C(NC1CCCC1)c1cnn2c(C(F)(F)F)cc(-c3ccco3)nc12,"inconclusive [inhibitor, partial curve]",
COc1ccc2c(c1)OC1(O)COc3cc(OC)c(OC)cc3C1=C2 (stereo not given),"inconclusive [inhibitor, single point]",
CCCCCc1nc2c(=O)n(C)c3ccccc3c2o1,inactive,
COc1ccc2c(c1)OC/C(=C\c1ccc(OC)c(O)c1)C2=O,"inconclusive [inhibitor, single point]",
Cc1ccc(O)c(N=Nc2ccccc2)n1,"inconclusive [inhibitor, full curve]",
Cc1c(C(=O)OC2CCCC2)[nH]c2c1C(=O)CC(c1ccco1)C2 (stereo not given),active: 25.1 µM,
O=C(CSc1nnc(CNC(=O)c2cccs2)o1)Nc1ccc2c(c1)OCO2,"inconclusive [inhibitor, full curve, poor fit]",

SMILES,Potency,"activity, negative = inhibition"
COc1ccc(NS(=O)(=O)c2ccc(NC(C)=O)cc2)cc1OC,"inconclusive [inhibitor, partial curve]",
Cc1noc(C)c1CSc1nc2ccccc2c(=O)n1-c1ccccc1,"inconclusive [inhibitor, partial curve]",
CCc1ccccc1S(=O)(=O)Cc1ccc(C(=O)N2CCN(c3ccccn3)CC2)o1,"inconclusive [inhibitor, single point]",
CC(=O)Nc1ccccc1,inactive,
O=NN(Cc1ccc(Cl)cc1)[C@@H](C(=O)O)c1ccccc1,,inactive: 1.3% [at 11.5 µM]
COc1ccccc1-c1nccc(N2CCN(C)CC2)n1,inactive,
C=C(C)CSC1=C(C#N)C(c2ccccc2Cl)CC(=O)N1 (stereo not given),active: 20 µM,
COc1nc(Nc2ccc(O)cc2)nc(OC(C(F)(F)F)C(F)(F)F)n1,active: 2 µM,
COC(=O)[C@H]1[C@H]2C[C@H]3c4[nH]c5ccccc5c4CCN3C[C@@H]2CC[C@@H]1O,inactive,
COc1ccc(-c2n[nH]c(C)c2-c2ccc(OC)c(OC)c2)c(O)c1,"inconclusive [inhibitor, partial curve]",
C=C[C@](C)(O)CCC1C(=C)CC(O)C2C(C)(C)CCCC12C (stereo not given in full),"inconclusive [inhibitor, full curve, poor fit]",
O=C(Nc1cccc2ccccc12)OC1C=CS(=O)(=O)C1 (stereo not given),active: 10 µM,
COc1ccc(S(=O)(=O)NCc2ccco2)cc1-c1nnc2c3ccccc3c(C)nn12,"inconclusive [inhibitor, single point]",
Cc1ccc(S(=O)(=O)O[C@@H]2[C@H]([C@@H]3COC(C)(C)O3)O[C@H]3OC(C)(C)O[C@@H]32)cc1,,inactive: 8.21% [at 11.5 µM]
COC(=O)CN(c1ccccc1OC)S(=O)(=O)c1ccccc1,"inconclusive [inhibitor, single point]",
Cc1c(NC(=O)C(C)OC(=O)CC2Sc3ccccc3NC2=O)c(=O)n(-c2ccccc2)n1C (stereo not given),"inconclusive [inhibitor, single point]",
O=C(Nc1cccc(Cl)c1)Nc1ccc2c(c1)OCO2,"inconclusive [inhibitor, partial curve, poor fit]",
CCCC1C(c2ccccc2)C(C#N)(C#N)C2(C#N)CC1(N)NC2=O (stereo not given),"inconclusive [inhibitor, partial curve]",
CCCN(CCC)C(=O)CSc1nc2n[nH]c(C)c2c(=N)n1-c1ccc(OC)cc1,"inconclusive [inhibitor, partial curve]",
Cc1sc2nc(SCC(=O)c3cccs3)n(Cc3ccco3)c(=O)c2c1C,"inconclusive [inhibitor, partial curve]",
CCOC(=O)c1c(NC(=O)CN2CCOCC2)sc2c1CCCC2,"inconclusive [inhibitor, single point]",
Cc1occc1C(=O)N1CCN(S(C)(=O)=O)CC1,,inconclusive: -34% [inhibitor]
